# Test results reported in publication PMC12040169 (PLOS Biology, 2025).
# The other results are listed elsewhere or left out.
# System: T1, C. trachomatis L2/434/Bu expressing GFP (CTL2-GFP)
# T1 construct: L2/434/Bu GFP intracellular growth in HeLa cells
# Parameters: species or system HeLa; C. trachomatis total inclusion area by high-content imaging, normalised to DMSO
# Settings: total inclusion area; 28.5 h, 10 µM; inhibitor
# How it was run: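 After bulk GFP and resorufin fluorescence reads, cells were fixed, stained with Hoechst and imaged by high-content microscopy. Inclusion area and number (GFP) stood in for chlamydial growth, nuclei count (Hoechst) for host cell viability. MICs were derived as for the bulk readout.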
row,Compound,% of control remaining
1,CCOC(=O)N1CCN(C(=O)c2c(C)nn(C)c2Cl)CC1 [CBK304522],31.7928
2,COc1ncccc1C(=O)N1CCN(c2ccccc2)CC1 [CBK200166],92.7285
3,O=C(CCN1Cc2ccccc2C1=O)NCCN1CCc2ccccc21 [CBK282632],138.783
4,O=C(O)CCCCC/N=C1\CCc2ccccc2N1 [CBK286773],118.801
5,O=C1CC[C@@H](C(=O)N2CCc3nc(-c4ccccc4F)sc3C2)N1 [CBK281891],100.926
6,Cc1cc(NC(=O)C(=O)NC(C)c2ccccc2)ccc1Br (stereo not drawn) [CBK267084],97.4869
7,CCCCc1ccc(Nc2csc(N)n2)cc1 [CBK020594],0.2915
8,CN(C)CCCN1C(=O)C(O)=C(C(=O)c2cccs2)C1c1cccnc1 (stereo not drawn) [CBK264511],107.781
9,Cc1cc(C)n2c(Nc3ccc(S(N)(=O)=O)cc3)nnc2n1 [CBK267601],103.425
10,Cc1nc(NS(=O)(=O)c2c(C)noc2C)sc1C(=O)Nc1ccc(F)cc1 [CBK050551],96.3948
11,CC(NC(=O)CCc1ccncc1)C1CC2CCC1C2 (stereo not drawn) [CBK282090],90.8278
12,CCn1cc(CN2CCC(Oc3cc(C)ccc3F)(C(=O)O)CC2)cn1 [CBK306644],61.9145
13,COc1ccc(C)cc1Nc1nc(N)nc(-c2oc3ccccc3c2C)n1 [CBK269026],86.4856
14,C=Cn1cc(CN2C3CCC2CC(O)(c2ccc(F)cc2)C3)c(C)n1 (stereo not drawn) [CBK282742],112.446
15,Cc1cc(C)c2cc(C)c3nn(CC(=O)N(C)C)c(=O)n3c2c1 [CBK283821],63.8555
16,Cc1ccc(CN2C[C@@H]3CC[C@@](O)(c4ncccc4C)[C@@H]3C2)o1 [CBK285361],104.061
17,O=C(NCCO)c1cccc(-c2cnc3[nH]c(=O)n(Cc4ccccn4)c3n2)c1 [CBK065034],84.0168
18,CN(C)CCCOC(=O)c1cccnc1Cl [CBK027436],107.48
19,Cc1nnc(SCC(=O)n2c3c(c4ccccc42)CCCC3)n1C [CBK268351],121.512
20,Cc1nc2ncnc(N3CCc4ccccc43)c2[nH]1 [CBK291228],85.4165
21,Cc1ccc(CSCC(=O)NCCN2CCOCC2)cc1 [CBK269327],102.743

row,Compound,% of control remaining
1,CN(C)c1ccc(-n2ncc(-c3ccccc3C(F)(F)F)n2)cc1 [CBK112716],101.996
2,CN1CCCC(NC(=O)c2cc(-c3cccs3)no2)C1 (stereo not drawn) [CBK282564],89.4456
3,Cc1ccc(NC2C=CS(=O)(=O)C2)cc1 (stereo not drawn) [CBK057487],80.9245
4,O=C(NCc1cccs1)C1(Cc2cccc(-c3ccc(F)c(F)c3)c2)CCOCC1 [CBK285569],95.0137
5,O=C(COc1ccccc1[N+](=O)[O-])Nc1cc(-c2nc3cc(Cl)ccc3o2)ccc1Cl [CBK268639],92.5837
6,Cc1ccc(S(=O)(=O)NC(C(=O)O)c2ccccc2)cc1 (stereo not drawn) [CBK286985],59.7523
7,Fc1ccccc1CN1CCN(c2nccnc2OCCN2CCOCC2)CC1 [CBK082886T],83.418
8,CCNC(=O)CN(CC)S(=O)(=O)c1cccc(C#N)c1 [CBK306481],28.9204
9,Cc1ccc(CN(CCCn2ccnc2)Cc2[nH]cnc2C)s1 [CBK283138],99.8077
10,CC(C)c1ccc(-c2cncc(NCCCO)n2)cc1 [CBK037937],113.131
11,NC(=O)c1ccccc1NC(=O)CN(c1cccc(Br)c1)S(=O)(=O)c1ccccc1 [CBK265263],95.1787
12,Cc1cc(OCC(=O)O)c(C)c2c1CC[C@@H]([C@H](C)C(=O)N1CCC(O)CC1)C2 [CBK289433],109.052
13,N#Cc1c(NC(=O)C(=O)NCc2ccccn2)sc2c1CCCC2 [CBK269360],95.2615
14,COc1cc(OC)c(OC)cc1CN1CCN(Cc2ccco2)CC1 [CBK074509G],100.339
15,CC(C)(C)C(=O)Nc1cccc(OC(F)(F)C(F)Cl)c1 (stereo not drawn) [CBK018091],87.2455
16,COc1ccccc1-c1cccc(NCC(c2cccnc2)N(C)C)n1 (stereo not drawn) [CBK037770],144.497
17,Cn1ncc2c1CCCN(C(=O)c1cccc(C(F)(F)F)c1)C2 [CBK282252],98.5118
18,CN(C)S(=O)(=O)Nc1ccc2c(ccn2Cc2ccccc2)c1 [CBK155765],73.044
19,Cc1cccn2cc(CSc3nnc4[nH]c5ccccc5n34)nc12 [CBK296996],100.9
20,CCOc1ccc(S(=O)(=O)N2CCC(C(=O)NCCO)CC2)cc1 [CBK269817],103.596
21,CCc1nc2c(OCC3CCCCO3)cccn2c1N(C)C(=O)c1ccc2c(c1)OCO2 (stereo not drawn) [CBK147860],129.956

row,Compound,% of control remaining
1,CC(C)(C)OC(=O)N[C@@H]1C(=O)OC(C(O)CO)[C@@H]1O (stereo partly drawn) [CBK008178],152.251
2,Cc1ccc(C(=O)O)cc1NC(=S)NC(=O)c1ccc(-c2ccccc2)cc1 [CBK264997],110.11
3,Cc1cc(C)n(-c2ccnc(NCc3cccnc3)n2)n1 [CBK288614],77.5708
4,O=C(CC1CCCCC1)N1CCCC1c1n[nH]cc1-c1ccncc1 (stereo not drawn) [CBK283429],81.9155
5,CCOCCN1C[C@@H](C(F)(F)F)[C@H](C(=O)O)C1 [CBK287033],121.49
6,O=C1OC(c2ccco2)=N/C1=C/c1ccccc1OC(=O)c1ccco1 [CBK263980],99.708
7,COCCNC(=O)c1ccc(-c2cc(C(C)C)ccc2OC)nc1NCC1CC1 [CBK106256],90.0827
8,CCN(C(=O)c1cc(C)nc2ccccc12)C1CCN(C)CC1 [CBK281920],90.8078
9,COc1ccc(Nc2ccc(-c3cnc(OC)nc3OC)cn2)c(C)c1 [CBK036827],110.774
10,CC(C)Cn1ncc2cc(C(=O)Nc3cccnc3N(C)C)cnc21 [CBK304891],40.2966
11,O=C(O)c1cc(C(=O)O)cc(N2C(=O)c3ccc(-c4ccc5c(c4)C(=O)N(c4cc(C(=O)O)cc(C(=O)O)c4)C5=O)cc3C2=O)c1 [CBK261331],116.942
12,NS(=O)(=O)c1ccc(NC(=S)N2CCN(CCO)CC2)cc1 [CBK265891],103.226
13,Fc1ccc(SCCc2ccccn2)cc1 [CBK026491G],44.7393
14,O=c1[nH]cc(S(=O)(=O)Nc2ccccc2)c(=O)[nH]1 [CBK287703],84.8425
15,CC(=O)NC(c1nccs1)C1CCCN(C(=O)C2CCCCC2)C1 (stereo not drawn) [CBK282170],59.9596
16,O=C(Cn1cccc(C(=O)Nc2ccc(F)cc2)c1=O)Nc1nc2c(s1)CCCCC2 [CBK286055],105.946
17,NC(=O)c1ccc(NC(=O)COc2ccccc2Cl)cc1 [CBK262961],86.117
18,COCC(=O)N1CCC2(C/C=C/C[C@H]3COCC[C@@H]3NC(=O)CNC2=O)CC1 [CBK292158],77.9766
19,COc1cc2[nH]c(=O)c(C(=O)NCCc3ccc(Cl)cc3)c(O)c2cc1OC [CBK159986],49.5831
20,CN1[C@@H](CCC(=O)N2CCc3ccccc32)CNC(=O)[C@@H]2[C@H]1CCN2Cc1ccc(O)cc1 [CBK289021],125.84
21,O=C1CNC(=O)C2(C/C=C/C[C@H]3COCC[C@@H]3N1)CCN(CC(=O)N1CCCCC1)CC2 [CBK292137],73.1496

row,Compound,% of control remaining
1,CSc1ccc(S(=O)(=O)NCCSCc2ccc(C)cc2)cc1 [CBK268510],74.9471
2,CCN1CCN(Cc2c(C)nc3ccc(C)cc3c2O)CC1 [CBK263699],106.762
3,Cc1nc2ccc(C(=O)NC3CCCOC3)cc2s1 (stereo not drawn) [CBK282509],103.52
4,CN1CCN(C(=O)CC[C@@H]2CNC(=O)[C@@H]3C[C@H](NC(=O)c4cccs4)CN23)CC1 [CBK289013],93.9472
5,O=C(CSc1nc[nH]n1)Nc1ccccc1[N+](=O)[O-] [CBK265005],101.789
6,COc1cc(NS(=O)(=O)c2ccc(NC(=O)c3cccc4ccccc34)cc2)nc(OC)n1 [CBK262465],100.516
7,COC(=O)c1cc(-c2cccnc2)[nH]n1 [CBK268945],96.6371
8,COc1ccc(Nc2ccc(-c3cccc(N(C)C)c3)cn2)cn1 [CBK037588],104.505
9,C=CCOc1ccc(-c2nnn(CC(=O)O)n2)cc1 [CBK269772],109.969
10,CCOC(=O)C1(Cc2cc(-c3ccccc3)no2)CCNCC1 [CBK284924],85.2462
11,O=C(O)CCCCCNc1ccc(C(F)(F)F)cc1[N+](=O)[O-] [CBK286707],111.713
12,Cc1nc2c(OCCOc3ccc(F)cc3)cccn2c1N(C)C(=O)CCC1CCCC1 [CBK147198],132.433
13,c1ccc(-c2ccc(COc3cncc(N4CCNCC4)n3)s2)nc1 [CBK008960G],117.613
14,CC1CCCCC12NC(=O)N(Cc1nnc(-c3cccs3)o1)C2=O (stereo not drawn) [CBK306205],16.1813
15,CC(NC(=O)N1CCC1)c1cccc(S(N)(=O)=O)c1 (stereo not drawn) [CBK306357],68.4762
16,O=C(Nc1cccc([N+](=O)[O-])c1)c1ccc2nc(-c3ccccn3)c(-c3ccccn3)nc2c1 [CBK265137],112.567
17,CCOC(=O)c1cnc(C(C)(C)C)nc1O [CBK018470],75.9411
18,CN(CC(=O)N1CCN(Cc2ccc3c(c2)OCO3)CC1)S(=O)(=O)c1ccccc1 [CBK265791],94.5587
